Test results from PubChem BioAssay AID485281 (National Center for Advancing Translational Sciences (NCATS), 2010).
The whole screen tested about 350,000 compounds, of which about 260 (0.074%) were called active. The shares of active, inactive and inconclusive entries below differ from those in the screen. Calls come from the whole dose curve; as a rule, active = well fitted inhibition curve with a large enough effect; inconclusive = small, poorly fitted or top-dose-only effect; inactive = no such curve, though single readings can be large or run the other way. A potency beside an inconclusive call is a rough fit, not a confirmed value.

biological target: Ferritin light chain (Equus caballus) (UniProt P02791); test: qHTS Assay for Identification of Novel General Anesthetics; settings: apoferritin/1-aminoanthracene competitive binding, fluorescence; activity change, negative = displacement: at 77.5 µM (top of the series); note: nearly all actives have a fitted effect of over 20% in size
Method in brief: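 In PBS, apoferritin at 10 uM is loaded with 1-AMA from a 50% saturated solution. After 10 min of compound exposure at ambient temperature, reduced 535 nm fluorescence indicates probe displacement.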
% is set by controls: 0 for no effect and ±100 for the full control effect; potency is the fitted concentration of half-maximal effect; tags give direction and shape of the fitted curve.

Chain of UniProt P02791 (P02791 whole entry, looked up): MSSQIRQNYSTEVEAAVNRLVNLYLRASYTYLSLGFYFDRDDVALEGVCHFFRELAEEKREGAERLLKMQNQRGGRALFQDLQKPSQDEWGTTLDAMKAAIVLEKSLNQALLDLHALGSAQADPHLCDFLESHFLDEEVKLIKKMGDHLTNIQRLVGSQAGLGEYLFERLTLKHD

| Structure (SMILES) | Potency | activity change, negative = displacement |
| --- | --- | --- |
| CCc1ccc(NC(=O)CC2C(=O)NCCN2C(=S)Nc2ccccc2)cc1 (centres undefined) | inconclusive: 28.2 µM [inhibitor, partial curve] |  |
| CCCc1nc(SCC(=O)O)c2sc(=S)n(-c3ccccc3)c2n1 |  | inactive: -8.22% |
| CCN(CC)C(=O)CSc1ncnc2c1cnn2Cc1ccccc1 | inconclusive: 25.1 µM [inhibitor, partial curve] |  |
| CCN(CC)CCC(=O)N1c2ccccc2CCc2ccc(NC(=O)OC(C)C)cc21 | inconclusive: 39.8 µM [inhibitor, single point] |  |
| CC(C)(CO)NS(=O)(=O)c1ccc2c(c1)oc(=O)c1cc(S(=O)(=O)NC(C)(C)CO)ccc12 | inconclusive: 22.4 µM [inhibitor, partial curve] |  |
| COC(=O)c1ccc(/C=N/NC(=O)CC(=O)NC2CCCCC2)cc1 | inconclusive: 3.55 µM [inhibitor, full curve] |  |
| CSc1ncccc1C(=O)OCC(=O)NC(=O)NCCC(C)C | inconclusive: 15.8 µM [inhibitor, partial curve] |  |
| Cc1ccc(-n2c(C)c3c(C)nnc(C)c3c2C)cc1C | inconclusive: 56.2 µM [inhibitor, single point] |  |
| C=CCOC(=O)C1=C(C)NC(SCC(=O)OCC)=C(C#N)C1c1ccc(O)c(OC)c1 (centres undefined) | inconclusive: 39.8 µM [inhibitor, single point] |  |
| COc1ccc2c(c1)CCc1c(C(=O)N3CCCc4ccccc43)noc1-2 |  | inactive: -10.1% |
| COC(=O)c1ccccc1NC(=O)N1CCCC1 |  | inactive: -4.45% |
| COc1ccc(C(=O)Nc2ccccc2C(=O)OCc2cc(=O)n3c4c(sc3n2)CCCC4)cc1 |  | inactive: 9.68% |
| O=C(CCC(=O)N1CC2CCCN2c2ccccc21)NCc1ccccc1Cl (centres undefined) |  | inactive: -0.193% |
| Cc1ccc(CNc2ccc3c(c2)OCO3)c(C)c1 | inconclusive: 10 µM [inhibitor, partial curve] |  |
| O=C1c2cccc3c([N+](=O)[O-])ccc(c23)C(=O)N1Cc1cccnc1 | inconclusive: 39.8 µM [inhibitor, partial curve] |  |
| Cc1ccccc1OC(=O)n1c(=S)oc2cc(Cl)ccc21 | inconclusive: 39.8 µM [inhibitor, single point] |  |
| CC(C)CCOC(=O)/C(=C/c1ccco1)NC(=O)/C=C/c1ccccc1 | inconclusive: 35.5 µM [inhibitor, partial curve] |  |
| COc1ccc(C(OCC(O)CNC(C)c2ccccc2)c2ccc(OC)cc2)cc1 (centres undefined) |  | inactive: -5.19% |
| Cc1ccc(-c2nnc(N3CCCCC3)c3ccccc23)cc1S(=O)(=O)NCC1CCCO1 (centres undefined) | inconclusive: 35.5 µM [inhibitor, partial curve] |  |
